Some of the results follow.
T1: UNK ZnF1-3 (human, UniProt Q9C0B0 31-174)
T1 sequence: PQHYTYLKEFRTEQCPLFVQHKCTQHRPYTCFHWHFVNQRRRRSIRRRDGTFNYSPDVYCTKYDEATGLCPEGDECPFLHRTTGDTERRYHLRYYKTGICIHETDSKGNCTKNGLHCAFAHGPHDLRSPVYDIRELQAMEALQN

B1: chr18:33362079:33362080:-_ENSMUSG00000024378_ENSMUST00000025236|mus_hu|FALSE|FALSE (ssRNA)
RNA: GGGAGUUCUACAGUCCGACGAUCAUUUCAUGUCUUGUUUAGCAUGUAUUUCAGGGCUCACUUUACCCAUAUUAACAACAACAAAACAGUAGACACAGGAAUACUAACACAUAAACAACUAACAUUAAACACGGAAAUGGAUUUCAACAGAGGAUUGAGCAUCA
B2: chr8:108204030:108204031:+_ENSMUSG00000005698_ENSMUST00000005841|mus_hu|motif|central (ssRNA)
RNA: GGGAGUUCUACAGUCCGACGAUCCUUCUUGGCGGGUGGUGGGGCUGGGGUCACAGGCUGAGGCUCUGGCUCAGGUUCAAUUUCGGCGGCAGGCUCCUCCUCAUCCUCAUUGUCGUCCAGAUCUGGUUCAGCAUUUUCACUGUCCAACAGAGGAUUGAGCAUCA
B3: chr7:44244176:44244177:+_ENSG00000106636_ENST00000223369|hu_mus|hu_hu_hu_mus_False|1_108 (ssRNA)
RNA: GGGAGUUCUACAGUCCGACGAUCACUAUCAUUCCGGACGUAGACAUGGCAAAGAUACUCUUGUUCUUUGACAGAAGCUCUGCUGCCUUUCCCCGAGCGUUCCACAAUCAGUUGACUUGUAAAGGUCAUGAAUUCCUGAACGCUCAACAGAGGAUUGAGCAUCA
B4: chr5:23655024:23655025:+_ENSMUSG00000028986_ENSMUST00000030841|mus_mus|FALSE|FALSE (ssRNA)
RNA: GGGAGUUCUACAGUCCGACGAUCAUUGUAGCAAUCCAUUCGCUUUAUGGGGAAAAGCUGAGAACCUCCCAAAAUGUAUACUACAUUGUCCCAAAACACACAUGCUGCAUCUCUUCGUUUUUCAAAGGGGCAGCGAAUGUCUGUCAACAGAGGAUUGAGCAUCA
B5: chr19:16212804:16212805:+_ENSG00000167460_ENST00000300933|hu_mus|hu_hu_hu_mus_False|48_98 (ssRNA)
RNA: GGGAGUUCUACAGUCCGACGAUCAACAAUUCUGGAGAAGAACAUCAAUGUAACAUGGAACAGCAUUAAAGCUCAGUCAGAAGGCACGUGGGUAAUUAUGAUCACCCCAGCAUUCUCGCUUGGAAUGCUUAAAGACAAUCUGUUCAACAGAGGAUUGAGCAUCA
B6: chr7:135832278:135832279:+_ENSMUSG00000042105_ENSMUST00000118605|mus_mus|motif|central (ssRNA)
RNA: GGGAGUUCUACAGUCCGACGAUCCUGCUGCCCUAAUCAUUUUUGUUUUCCCGCCACUGUGGCAAACCUUCCUUCCAUACGGUAAAAACAAAAAUUGCCAAAACUACAUGCAGCCCAACCACGGAGACAAUGGUCGCAUAAAAACAACAGAGGAUUGAGCAUCA

Biological target: T1, UNK ZnF1-3
Experiment: nsRBNS (natural sequence RNA bind-n-seq); RBNS binding buffer (assumed for nsRBNS): 25 mM Tris pH 7.5, 150 mM KCl, 3 mM MgCl2, 0.01% Triton X-100, 500 ug/ml BSA, 20 U/ml SUPERase-In, 4 C; UNK is unkempt and MSI1 is Musashi-1; names of the RNAs are library labels; protein concentration not given here; high values mean tight binding

Binder | binding signal [enrichment R]
B1 | 0.858
B2 | 0.667
B3 | 0.559
B4 | 0.832
B5 | 1.18
B6 | 1.46
